Data from patent US20050058645A1 (ZENYTH OPERATIONS, published 2005).

Assays:
[1] = target: T1, chimeric human IL-13Rα1-Fc (human, UniProt P78552 22-343); test: Biosensor, immobilized human IL-13, chimeric receptor in solution
T1 construct: Bought (R & D Systems); Extracellular domain of IL-13Rα1 fused to Fc of human IgG; Expressed as preformed disulphide-bonded dimer; also called hIL-13Rα1-Fc; chimeric human receptor; not shown: Fc portion of human IgG
T1 sequence: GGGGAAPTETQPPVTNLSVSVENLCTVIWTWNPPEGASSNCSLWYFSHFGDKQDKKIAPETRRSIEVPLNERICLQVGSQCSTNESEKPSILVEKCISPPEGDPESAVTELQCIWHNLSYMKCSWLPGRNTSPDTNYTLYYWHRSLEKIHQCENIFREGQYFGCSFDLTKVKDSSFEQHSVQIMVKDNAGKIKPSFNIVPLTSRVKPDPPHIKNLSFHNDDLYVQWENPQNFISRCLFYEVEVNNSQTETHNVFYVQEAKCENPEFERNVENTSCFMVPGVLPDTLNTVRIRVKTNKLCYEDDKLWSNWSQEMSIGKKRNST
Source text: (§1) A qualitative comparison of sensorgrams obtained in this study to data obtained previously with monomeric receptor protein, indicated a substantial improvement in binding kinetics. This improvement is attributed to a much slower off-rate for the dimeric form, compared with the monomeric form, of the receptor. To further quantify this interaction a complete dose-response analysis using both human and mouse chimeric receptor proteins and immobilized human and mouse IL-13 was undertaken.

[2] = target: T2, chimeric mouse IL-13Rα1-Fc (mouse; human, UniProt O09030 26-340); test: as above
T2 construct: extracellular domain; Bought (R & D Systems); Preformed disulphide-bonded dimer; also called mIL-13Rα1-Fc; chimeric mouse receptor; not shown: Fc portion of human IgG
T2 sequence (looked up): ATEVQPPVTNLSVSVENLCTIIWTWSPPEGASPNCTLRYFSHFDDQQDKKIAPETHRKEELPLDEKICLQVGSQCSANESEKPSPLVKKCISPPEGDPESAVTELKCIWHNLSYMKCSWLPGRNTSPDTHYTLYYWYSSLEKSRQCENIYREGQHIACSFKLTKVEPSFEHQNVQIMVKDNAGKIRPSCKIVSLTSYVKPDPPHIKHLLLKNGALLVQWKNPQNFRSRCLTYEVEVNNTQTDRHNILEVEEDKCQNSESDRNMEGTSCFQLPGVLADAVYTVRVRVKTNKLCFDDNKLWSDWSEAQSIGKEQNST
Source text: as §1

Kd [1]: 5.93 nM
Kd [2]: 0.784 nM
B1: human IL-13 (ligand)
chain: not shown
